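48-hour exposure; five concentrations; linearly interpolated endpoints. Here, GI50 denotes the concentration required for 50% inhibition of growth.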 For part of its entries the source gives two or more results. They are shown here; other results are not. An entry can have further records. The tests behind the records often covered other concentration ranges, which the source does not state; a value can be the end of its range.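 TGI denotes the concentration required for complete inhibition of growth.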
What was measured:
Assay in all cases: NCI-60 cell line screen, 48 h
[1] = test system: HOP-62 NSCLC
[2] = test system: MDA-N
[3] = test system: MOLT-4 leukemia
[4] = test system: NCI-H23 lung
[5] = test system: NCI-H522 lung
[6] = test system: NCI/ADR-RES ovarian
[7] = test system: OVCAR-4 ovarian
[8] = test system: OVCAR-8 ovarian
[9] = test system: PC-3 prostate
[10] = test system: RPMI-8226 leukemia
[11] = test system: SK-OV-3 ovarian
[12] = test system: SN12C renal
[13] = test system: SW-620 colon
[14] = test system: U251 CNS
[15] = test system: UO-31 renal
[16] = test system: CAKI-1 renal
[17] = test system: K-562 leukemia
[18] = test system: LOX IMVI melanoma
[19] = test system: NCI-H226 lung
[20] = test system: OVCAR-5 ovarian
[21] = test system: SR leukemia
[22] = test system: DU-145 prostate
[23] = test system: HCT-116 colon
[24] = test system: A498 renal
[25] = test system: ACHN renal
[26] = test system: CCRF-CEM leukemia
[27] = test system: COLO 205 colon
[28] = test system: EKVX NSCLC
[29] = test system: HCT-15 colon
[30] = test system: HL-60(TB) leukemia
[31] = test system: HOP-92 NSCLC
[32] = test system: IGROV1 ovarian
[33] = test system: KM12 colon
[34] = test system: M14 melanoma
[35] = test system: MALME-3M melanoma
[36] = test system: NCI-H460 lung
[37] = test system: OVCAR-3 ovarian
[38] = test system: RXF 393 renal
[39] = test system: SF-268 CNS
[40] = test system: SF-295 CNS
[41] = test system: SF-539 CNS
[42] = test system: SK-MEL-28 melanoma
[43] = test system: SK-MEL-5 melanoma
[44] = test system: SNB-19 CNS
[45] = test system: SNB-75 CNS
[46] = test system: UACC-257 melanoma
[47] = test system: UACC-62 melanoma
[48] = test system: XF 498 CNS

## CC[C@@]1(O)C(=O)OCc2c1cc1n(c2=O)Cc2cc3c(Cl)c4c(cc3nc2-1)OCO4
[1]
  TGI: 541 nM and 10.5 µM
[2]
  GI50: 41.3 nM and 5.2 µM
[3]
  TGI: 1.02 nM and 167 nM
[4]
  TGI: 6.41 µM and 28.4 nM
[5]
  GI50: 3.44 nM and 85 nM
[6]
  TGI: 228 nM and > 100 µM
[7]
  GI50: 69.1 nM and 4.19 µM
  TGI: 2.79 µM and > 100 µM
[8]
  TGI: 2.02 µM and > 100 µM
[9]
  GI50: 293 nM and 28.4 nM
[10]
  GI50: < 1 nM and 14.6 nM
[11]
  TGI: 4.98 µM and > 100 µM
[12]
  TGI: 8.86 µM and > 100 µM
[13]
  GI50: < 1 nM and 26.5 nM
[14]
  TGI: 124 nM and 1.69 µM
[15]
  TGI: 316 nM and 23 nM

## O=C1/C(=C\c2ccc([N+](=O)[O-])cc2)CS(=O)(=O)C/C1=C/c1ccc([N+](=O)[O-])cc1
[16]
  TGI: 676 nM and 7.11 µM
[17]
  GI50: 44.3 nM and 1.04 µM
[18]
  TGI: 152 nM and 1.97 µM
[3]
  GI50: 73 nM and 16.7 µM
  TGI: 553 nM and > 100 µM
[19]
  TGI: 400 nM and 8.42 µM
[20]
  TGI: 337 nM and 3.64 µM
[21]
  TGI: 626 nM and > 100 µM

## COc1ccc(C2c3cc4c(c(OC)c3CC3OCC(=O)C32)OCO4)cc1OC (stereo not drawn)
[22]
  TGI: 136 nM and > 100 µM
[23]
  TGI: 426 nM and > 100 µM
[4]
  TGI: 978 nM and 46.2 µM

## COc1cccc2c1C(=O)c1c(O)c3c(c(O)c1C2=O)C[C@@](O)(C(C)=O)C[C@@H]3OC1CC(N(C)C)C(O)C(C)O1 (stereo partly drawn)
[24]
  TGI: 6.02 nM, 341 nM, 207 nM
[25]
  TGI: 8.19 nM and 3.16 µM
[26]
  TGI: 9.27 nM, 1.15 µM, 217 nM
[27]
  TGI: 6.89 nM, 217 nM, 76.8 nM
[28]
  TGI: 9.48 nM, 475 nM, 353 nM
[23]
  TGI: 4.4 nM and 371 nM
[29]
  TGI: 7.78 nM, 1.65 µM, 538 nM
[30]
  TGI: 7.84 nM, 412 nM, 219 nM
[1]
  TGI: 6.91 nM, 725 nM, 293 nM
[31]
  TGI: 7.86 nM, 510 nM, 139 nM
[32]
  TGI: 9.32 nM, 1.29 µM, 1.84 µM
[33]
  TGI: 8.33 nM, 1.73 µM, 289 nM
[18]
  TGI: 3.27 nM, 155 nM, 52.7 nM
[34]
  TGI: 6.66 nM and 206 nM
[35]
  TGI: 264 nM and 25.5 nM
[3]
  TGI: 4.38 nM, 111 nM, 44 nM
[19]
  TGI: 2.15 nM, 423 nM, < 21.8 nM
[4]
  TGI: 7.18 nM, 338 nM, 238 nM
[36]
  TGI: 7.1 nM, 1.04 µM, 116 nM
[5]
  TGI: 7.12 nM, 301 nM, 234 nM
[37]
  TGI: 9.26 nM, 834 nM, 791 nM
[20]
  TGI: 7.93 nM, 770 nM, 237 nM
[38]
  TGI: 9.71 nM, 208 nM, 83.8 nM
[39]
  TGI: 7.98 nM, 631 nM, 399 nM
[40]
  TGI: 7.69 nM, 412 nM, 364 nM
[41]
  TGI: 6.99 nM, 230 nM, 98.7 nM
[42]
  TGI: 7.28 nM, 241 nM, 181 nM
[43]
  TGI: 6.28 nM, 194 nM, 147 nM
[44]
  TGI: 7.27 nM, 2.46 µM, 11.3 µM
[45]
  TGI: 6.25 nM, 442 nM, 174 nM
[21]
  TGI: 3.44 nM and 36.1 nM
[14]
  TGI: 8.5 nM, 5.2 µM, 356 nM
[46]
  TGI: 7.76 nM, 341 nM, 176 nM
[47]
  TGI: 6.28 nM, 179 nM, 70.6 nM
[15]
  TGI: 5.29 nM, 323 nM, 177 nM
[48]
  GI50: 104 nM and 10 nM

Source: PubChem BioAssay (NCI)
